Experimental findings from article PMC4336329 (PLoS ONE, 2015) are described below.

About 2,200 (0.71%) of roughly 310,000 compounds showed an effect of 50% or more. The effect is printed as a negative number. Some of the results follow.

The target of this test is human ether-à-go-go-related gene (hERG) potassium channel (human, UniProt Q12809). Kind of test: primary screen, population patch clamp on CHO cells stably expressing hERG.
Chain of human ether-à-go-go-related gene (hERG) potassium channel (Q12809 whole entry, looked up): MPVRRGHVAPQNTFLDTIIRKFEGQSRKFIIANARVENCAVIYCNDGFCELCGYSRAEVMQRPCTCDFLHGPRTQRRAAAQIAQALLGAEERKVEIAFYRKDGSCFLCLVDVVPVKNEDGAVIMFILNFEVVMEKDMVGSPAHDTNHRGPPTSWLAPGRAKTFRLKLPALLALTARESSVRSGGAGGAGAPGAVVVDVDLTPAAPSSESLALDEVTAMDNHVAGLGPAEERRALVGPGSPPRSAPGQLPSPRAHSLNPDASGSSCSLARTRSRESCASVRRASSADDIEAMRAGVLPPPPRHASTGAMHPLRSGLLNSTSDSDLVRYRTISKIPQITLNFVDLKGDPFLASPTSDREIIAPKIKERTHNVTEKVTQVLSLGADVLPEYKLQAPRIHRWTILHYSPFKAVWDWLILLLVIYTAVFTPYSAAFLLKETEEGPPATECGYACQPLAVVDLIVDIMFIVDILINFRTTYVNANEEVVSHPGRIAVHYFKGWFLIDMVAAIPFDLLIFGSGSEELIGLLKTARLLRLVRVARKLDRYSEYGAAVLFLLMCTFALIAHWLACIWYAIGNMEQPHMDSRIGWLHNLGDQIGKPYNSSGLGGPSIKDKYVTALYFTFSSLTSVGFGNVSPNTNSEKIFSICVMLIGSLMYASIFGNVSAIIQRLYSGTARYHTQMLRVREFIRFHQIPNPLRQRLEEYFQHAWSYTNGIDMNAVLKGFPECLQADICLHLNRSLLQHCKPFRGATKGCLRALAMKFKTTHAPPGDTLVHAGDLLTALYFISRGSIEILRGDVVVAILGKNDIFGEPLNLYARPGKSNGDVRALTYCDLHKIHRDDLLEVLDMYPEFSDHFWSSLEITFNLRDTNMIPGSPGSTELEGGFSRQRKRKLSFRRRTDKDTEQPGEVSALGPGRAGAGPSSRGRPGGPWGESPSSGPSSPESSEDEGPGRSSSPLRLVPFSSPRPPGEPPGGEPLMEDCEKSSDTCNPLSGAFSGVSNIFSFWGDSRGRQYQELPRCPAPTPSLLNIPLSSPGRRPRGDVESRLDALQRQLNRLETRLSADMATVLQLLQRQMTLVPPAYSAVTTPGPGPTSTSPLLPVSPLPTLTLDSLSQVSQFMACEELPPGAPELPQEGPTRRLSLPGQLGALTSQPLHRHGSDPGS
`CCOc1ccc(S(=O)(=O)N2CCOCC2)cc1NC(=O)CSCC(=O)Nc1ccc(C)cc1`: the “hERG current change (%, negative = inhibition) at 1uM” value is on record as -9.03%.

For `CC(=O)N/N=C/c1c(C)[nH]n(-c2ccccc2)c1=O`, the “hERG current change (%, negative = inhibition) at 1uM” value came to 15.1%.

Regarding `CC(C)n1c(SCC(=O)Nc2ccc(N3CCOCC3)cc2)nnc1-c1ccco1`, the “hERG current change (%, negative = inhibition) at 1uM” value is reported as 12.2%.

Turning to `COc1ccc(-c2nn(CCC(=O)O)cc2CCC(=O)O)cc1`, the “hERG current change (%, negative = inhibition) at 1uM” value came to 16.2%.

Consider `CCOC(=O)C1(CCOC)CCN(Cc2cccc(OCc3ccccc3)c2)CC1`, for which the “hERG current change (%, negative = inhibition) at 1uM” value is recorded as 3.99%.

In the case of `O=C(N/N=C/C(Br)=C\c1ccccc1)c1ccco1`, the “hERG current change (%, negative = inhibition) at 1uM” value was 12.6%.

Consider `CCOc1ccc(OCC)c(S(=O)(=O)NNC(=O)c2c(C)nc3ccccn23)c1`, for which the “hERG current change (%, negative = inhibition) at 1uM” value is on record as 5.91%.

As for `CSc1ccc(CN2CCN(CC=C(C)C)C(CCO)C2)cc1` (stereo not drawn), the “hERG current change (%, negative = inhibition) at 1uM” value worked out at 3.67%.

`COc1ccc(NC(=S)NC(=O)c2cc3ccccc3o2)c(OC)c1`: the “hERG current change (%, negative = inhibition) at 1uM” value is on record as 17.2%.

For the molecule `COc1ccc(-c2c(C)nn3c(N)c(-c4ccccc4)cnc23)cc1OC`, the “hERG current change (%, negative = inhibition) at 1uM” value was determined as 12.8%.

For the molecule `O=C(OCCN1CCOCC1)c1cccnc1`, the “hERG current change (%, negative = inhibition) at 1uM” value is reported as -14.6%.

`COc1ccc(S(=O)(=O)N(C)C)cc1NCC(=O)Nc1cccc(C#N)c1`: the “hERG current change (%, negative = inhibition) at 1uM” value is listed as 6.73%.

In the case of `CCCn1nc(NC(=O)CC(C)C)c2cc3cccc(C)c3nc21`, the “hERG current change (%, negative = inhibition) at 1uM” value turned out to be 13.4%.

For `CSc1nnc(-c2sccc2OCc2ccc(C)cc2)n1C`, the “hERG current change (%, negative = inhibition) at 1uM” value was 6.59%.

With `CCN1CCN(c2ccc(S(=O)(=O)N3CCCCC3)cc2NC(=O)c2cccc(F)c2)CC1`, the “hERG current change (%, negative = inhibition) at 1uM” value is listed as -2.83%.

In the case of `Fc1cc(Br)ccc1COc1ccc(-c2nnco2)cc1`, the “hERG current change (%, negative = inhibition) at 1uM” value was 13.5%.

Consider `Cc1ccc(C)c(OCCCC(C)(C)C(=O)O)c1`, for which the “hERG current change (%, negative = inhibition) at 1uM” value is on record as 13.7%.

In the case of `Cc1ccc(CSCCNS(=O)(=O)c2ccc(C)cc2)cc1`, the “hERG current change (%, negative = inhibition) at 1uM” value is 6.26%.

On to `COCC(C)NC(=O)c1ccc(-n2nc(C(F)(F)F)cc2-c2cccs2)cc1` (stereo not drawn), for which the “hERG current change (%, negative = inhibition) at 1uM” value is recorded as 15.5%.

Turning to `COc1cc(CNC(=O)c2cc3ccccc3oc2=O)cc(OC)c1OC`, the “hERG current change (%, negative = inhibition) at 1uM” value is given as 15.2%.

As for `CCOC(=O)C(C)Sc1nc(N2CCOCC2)c2c(c1C#N)CC(C)(C)OC2` (stereo not drawn), the “hERG current change (%, negative = inhibition) at 1uM” value is given as -13.4%.

For `O=C(O)CCC(=O)N1N=C(c2ccc(Br)cc2)CC1c1ccc(Br)cc1` (stereo not drawn), the “hERG current change (%, negative = inhibition) at 1uM” value was 13.8%.

As for `Cc1nc2nc(CNC(=O)OC(C)(C)C)nn2c(C)c1CCC(=O)Nc1ccc2c(c1)OCO2`, the “hERG current change (%, negative = inhibition) at 1uM” value worked out at 10.2%.

For `CCCOC(=O)c1ccccc1C(=O)OCCC`, the “hERG current change (%, negative = inhibition) at 1uM” value is reported as 3.27%.

As for `O=C(c1ccc2ccccc2c1)N1CCOCC1`, the “hERG current change (%, negative = inhibition) at 1uM” value amounted to 0.316%.

Consider `Br.N=c1n(CCc2ccccc2)c2ccccc2n1Cc1ccccc1F`, for which the “hERG current change (%, negative = inhibition) at 1uM” value is on record as -9.81%.

As for `CCOC(=O)c1c(C)[nH]c(C(=O)N/N=C\c2ccccc2Cl)c1C`, the “hERG current change (%, negative = inhibition) at 1uM” value is listed as 12.5%.

Regarding `Cc1ccc(S(=O)(=O)Nc2nc(-c3ccc(F)cc3)cs2)cc1`, the “hERG current change (%, negative = inhibition) at 1uM” value worked out at 11.8%.

As for `Cc1nn(S(=O)(=O)N2CCOCC2)c(C)c1Br`, the “hERG current change (%, negative = inhibition) at 1uM” value turned out to be 12.3%.

Turning to `Clc1ccccc1Cn1nnc2c(NCCN3CCOCC3)ncnc21`, the “hERG current change (%, negative = inhibition) at 1uM” value amounted to 6.09%.

As for `CCC1(C)Cc2c(sc3nc(SC)[nH]c(=O)c23)CO1` (stereo not drawn), the “hERG current change (%, negative = inhibition) at 1uM” value was 11.4%.

On to `COc1cccc(CN2CCN(c3ccc(F)cc3)C2=O)c1`, for which the “hERG current change (%, negative = inhibition) at 1uM” value worked out at 9.9%.

As for `COc1ccc2[nH]cc(CCNC(=O)Nc3ccccc3C)c2c1`, the “hERG current change (%, negative = inhibition) at 1uM” value is 14%.

Regarding `Fc1ccccc1N1CCN(Cc2nc(-c3ccccc3)no2)CC1`, the “hERG current change (%, negative = inhibition) at 1uM” value is 4.96%.

`Cc1ccc2[nH]c(=O)c(CN(Cc3cccs3)S(=O)(=O)c3ccc4c(c3)OCCO4)cc2c1`: the “hERG current change (%, negative = inhibition) at 1uM” value was 10.5%.

For the molecule `Cc1nn(CC(=O)NCCCc2ccccc2)c(=O)c2cccn12`, the “hERG current change (%, negative = inhibition) at 1uM” value was -16.5%.

`Cc1ccc(-c2csc3nc[nH]c(=S)c23)cc1C`: the “hERG current change (%, negative = inhibition) at 1uM” value was found to be 14.7%.

As for `C[C@H](NC(=O)c1nc[nH]c1C(=O)N[C@@H](Cc1ccccc1)C(=O)OC(C)(C)C)c1ccccc1`, the “hERG current change (%, negative = inhibition) at 1uM” value is reported as 17.3%.

Take `COc1ccc(CCNC(=O)c2ccc(S(=O)(=O)N(C)c3ccccc3)cc2)cc1OC`: the “hERG current change (%, negative = inhibition) at 1uM” value is 10.4%.

With `CC1(C)NC(=O)N(c2ccc([N+](=O)[O-])c(C(F)(F)F)c2)C1=O`, the “hERG current change (%, negative = inhibition) at 1uM” value worked out at 14%.

For the molecule `COc1ccc(/C=C2\SC(=S)N(c3cccnc3)C2=O)cc1`, the “hERG current change (%, negative = inhibition) at 1uM” value came to 9.63%.

With `Cc1cc(NC(=O)CSCC(=O)Nc2ccccc2OC(F)F)no1`, the “hERG current change (%, negative = inhibition) at 1uM” value was 12%.

Consider `O=C(Nc1ccccc1C(=O)N1CCCCCC1)c1ccc(Cl)cc1`, for which the “hERG current change (%, negative = inhibition) at 1uM” value turned out to be 12.5%.

On to `COc1ccc(CCNC(=O)C/C(C)=N/NC(=O)Cc2cccc3ccccc23)cc1OC`, for which the “hERG current change (%, negative = inhibition) at 1uM” value is 11.7%.

For `COc1cc(NC(=O)c2cccs2)c(C(=O)OCC(=O)NC(=O)NCc2ccccc2)cc1OC`, the “hERG current change (%, negative = inhibition) at 1uM” value was 2.7%.

In the case of `O=C(Oc1ccc2c(=O)c(Cl)coc2c1)c1ccncc1`, the “hERG current change (%, negative = inhibition) at 1uM” value is 10.6%.

With `CC(=O)Nc1ccc2c3c(cccc13)C(=O)N(c1ccccc1)C2=O`, the “hERG current change (%, negative = inhibition) at 1uM” value is recorded as -0.237%.

As to `CC(=O)C[C@H]1c2cc(C(F)(F)F)ccc2S(=O)(=O)N1Cc1ccccc1`, the “hERG current change (%, negative = inhibition) at 1uM” value is 6.19%.

Take `CCN(CC)S(=O)(=O)c1ccc(OCC(=O)NC2CCS(=O)(=O)C2)c([N+](=O)[O-])c1` (stereo not drawn): the “hERG current change (%, negative = inhibition) at 1uM” value stood at 13.5%.

In the case of `C/C(=N/Nc1ncc(C(F)(F)F)cc1Cl)c1ccncc1`, the “hERG current change (%, negative = inhibition) at 1uM” value is recorded as -11.8%.

Turning to `Clc1ccc(CNC2CCN(Cc3ccccc3)CC2)cc1`, the “hERG current change (%, negative = inhibition) at 1uM” value is -21.4%.

Regarding `CCn1nnc(-c2ccccc2NS(=O)(=O)c2ccc(C(=O)OC)cc2)n1`, the “hERG current change (%, negative = inhibition) at 1uM” value was determined as 14.7%.

Regarding `NNc1nc2c(F)cccc2s1`, the “hERG current change (%, negative = inhibition) at 1uM” value was -1.95%.

In the case of `C[C@H](NC(=O)c1ccco1)C(=O)Nc1ccc(C#N)cc1`, the “hERG current change (%, negative = inhibition) at 1uM” value is reported as 3.86%.

As to `CC1(C)CC(=O)C(C(c2cc([N+](=O)[O-])ccc2Cl)C2C(=O)CC(C)(C)CC2=O)C(=O)C1`, the “hERG current change (%, negative = inhibition) at 1uM” value worked out at 7.13%.

As for `O=S(=O)(c1ccccc1)N(CC1CO1)c1ccccc1` (stereo not drawn), the “hERG current change (%, negative = inhibition) at 1uM” value amounted to 4.64%.

With `C=CCn1c(SCC(=O)Nc2cc3oc4ccccc4c3cc2OC)nnc1-c1cnccn1`, the “hERG current change (%, negative = inhibition) at 1uM” value is given as 6.39%.
